# According to paper PMC4336329 (PLoS ONE, 2015):
# In all, about 310,000 compounds went through this assay and about 2,200 (0.71%) showed an effect of 50% or more. The effect is printed as a negative number. This is one part of the list.
# Target: human ether-à-go-go-related gene (hERG) potassium channel (human, UniProt Q12809)
# Assay: primary screen, population patch clamp on CHO cells stably expressing hERG
# Sequence of human ether-à-go-go-related gene (hERG) potassium channel (Q12809 whole entry, looked up): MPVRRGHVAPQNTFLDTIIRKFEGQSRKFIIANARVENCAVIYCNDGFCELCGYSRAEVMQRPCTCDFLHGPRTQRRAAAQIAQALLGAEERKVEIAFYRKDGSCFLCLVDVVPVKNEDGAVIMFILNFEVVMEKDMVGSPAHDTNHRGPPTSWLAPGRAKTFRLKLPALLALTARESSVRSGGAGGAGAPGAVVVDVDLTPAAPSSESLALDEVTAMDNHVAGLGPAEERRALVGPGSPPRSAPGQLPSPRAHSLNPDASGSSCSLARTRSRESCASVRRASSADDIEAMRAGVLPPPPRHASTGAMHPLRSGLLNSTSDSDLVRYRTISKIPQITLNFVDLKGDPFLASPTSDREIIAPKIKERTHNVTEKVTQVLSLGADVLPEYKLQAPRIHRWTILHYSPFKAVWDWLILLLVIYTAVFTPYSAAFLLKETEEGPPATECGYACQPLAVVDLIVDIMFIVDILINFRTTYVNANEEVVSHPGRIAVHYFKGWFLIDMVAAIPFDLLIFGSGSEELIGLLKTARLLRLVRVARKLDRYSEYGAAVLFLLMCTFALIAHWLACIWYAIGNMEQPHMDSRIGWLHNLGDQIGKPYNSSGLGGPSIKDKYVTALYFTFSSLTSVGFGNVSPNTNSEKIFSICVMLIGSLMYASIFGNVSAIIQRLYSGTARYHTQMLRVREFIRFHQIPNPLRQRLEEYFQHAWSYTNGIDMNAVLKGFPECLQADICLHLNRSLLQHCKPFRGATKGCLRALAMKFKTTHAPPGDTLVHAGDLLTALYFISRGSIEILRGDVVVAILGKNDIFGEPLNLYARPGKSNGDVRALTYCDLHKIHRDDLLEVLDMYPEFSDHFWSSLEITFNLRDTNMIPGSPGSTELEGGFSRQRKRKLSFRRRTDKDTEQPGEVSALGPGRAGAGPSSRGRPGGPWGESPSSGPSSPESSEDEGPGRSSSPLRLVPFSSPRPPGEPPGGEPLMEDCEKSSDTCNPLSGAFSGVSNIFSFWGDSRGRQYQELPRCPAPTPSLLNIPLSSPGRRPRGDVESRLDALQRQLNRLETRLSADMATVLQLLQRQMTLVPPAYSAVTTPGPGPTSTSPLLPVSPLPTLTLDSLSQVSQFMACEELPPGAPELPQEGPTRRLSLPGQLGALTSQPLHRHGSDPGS
row,Structure (SMILES),"hERG current change (%, negative = inhibition) at 1uM"
1,O=C(NNC(=O)C1CCN(S(=O)(=O)c2ccc(Cl)cc2)CC1)c1ccncc1,10.7%
2,O=C(NCc1cccs1)c1ccccc1F,8.21%
3,CN1CCN(CCC(=O)N/N=C/c2cc3c(cc2[N+](=O)[O-])OCO3)CC1,1.87%
4,CO/N=C(\Cn1ncc(N2CCOCC2)c(Br)c1=O)c1ccc(Cl)cc1,1.96%
5,CCOC(=O)c1oc2ccccc2c1CN1CCOCC1.Cl,-5.9%
6,O=C(Cn1[nH]c(=O)c2ccccc2c1=O)OCC(=O)N1CCCc2ccccc21,12.9%
7,O=C(O)CC/C(=N\NC(=O)CNC(=O)c1ccc(F)cc1)c1ccccc1,10.4%
8,Cc1nn(-c2ccccc2)c(C)c1NC(=O)COC(=O)[C@@H](NC(=O)c1ccccc1)C(C)C,9.67%
9,CS(=O)(=O)N1CCN(c2ncnc3c2cnn3-c2ccccc2)CC1,11.9%
10,Nc1ccc(C(=O)OCc2nc3ccccc3[nH]2)cc1,12.5%
11,C=CCn1cnc2c(nnn2-c2ccc(Cl)cc2)c1=O,2.52%
12,COc1cccc(Cn2cc(C)cc(NC(=O)NCc3ccccc3)c2=O)c1,14.8%
13,COc1ccc(OCC(=O)NC(CC(=O)O)c2ccc(OC)c(OC)c2)cc1 (stereo not shown),19.2%
14,COc1ccc(C2C(C(=O)c3ccco3)=C(O)C(=O)N2c2nnc(C)s2)cc1OC (stereo not shown),18.1%
15,CCOc1ccc(S(=O)(=O)N2CCCCC2)cc1NS(=O)(=O)c1cccs1,9.96%
16,O=C(O)c1ccccc1C(=O)c1ccc(Oc2ccccc2)cc1,14.2%
17,CCOc1ccc2nc(SCC(=O)N(C)C3CCS(=O)(=O)C3)[nH]c2c1 (stereo not shown),1.23%
18,CC(=O)Nc1sc2c(c1C(c1ccccc1)N1CCOCC1)CCCC2 (stereo not shown),13.6%
19,C[N+](C)(C)CCNC(=O)c1c(O)c2c([nH]c1=O)CCCC2.[I-],11.7%
20,COc1ccc(C(=O)C2CCCN(C(=O)c3c4c(nn3C)CCCC4)C2)cc1F (stereo not shown),10.5%
21,Cc1ccc(S(=O)(=O)NC(=NC2CCCCC2)c2ccc(F)cc2)cc1,-18.3%
22,COC(c1ccccc1)c1nnc(CCC(=O)N(C)CCc2ccccc2)o1 (stereo not shown),-0.24%
23,COC(=O)C1=C(c2ccc3ccccc3c2)C[C@@H]2CC[C@H]1N2C(=O)N1CCC(C)CC1,8.02%
24,O=C(COC(=O)c1cnccn1)c1ccc(Br)cc1,6.61%
25,CCN1CCC(N2CCN(c3ccc(Cl)cc3)CC2)CC1,10.7%
26,Cc1cccc(OCC(=O)Nc2ccc3c4c(cccc24)CC3)c1C,16.3%
27,O=C(CN1C(=O)S/C(=C\c2cccs2)C1=O)Nc1ccc(O)c(C(=O)O)c1,8.11%
28,O=C(NCc1ccccc1)c1ccc2nnsc2c1,4.58%

row,Structure (SMILES),"hERG current change (%, negative = inhibition) at 1uM"
1,CC(C)NC(=O)CC(=O)N/N=C/c1cccs1,12.7%
2,Cc1ccccc1NC(=O)NC1(C(=O)N2CCOCC2)CCCCC1,17.8%
3,Cc1[nH]n(-c2ccccc2)c(=O)c1C(c1ccccc1C(=O)O)c1c(C)[nH]n(-c2ccccc2)c1=O,0.933%
4,COc1cc(/C=N/NC(=O)Cn2nnc3ccccc32)ccc1O,12.8%
5,c1ccc(CCCCN2CCN=C2Nc2ccccc2)cc1,-11.5%
6,Cc1ccc(NC(=O)C2CCN(S(C)(=O)=O)CC2)cc1,9.57%
7,Cc1nnc(SCC(=O)N2CCCC(C(=O)c3ccc(Cl)cc3)C2)o1 (stereo not shown),0.262%
8,CCN(CC(=O)N1CCCC1)S(=O)(=O)c1ccc(F)cc1,14.7%
9,Cc1cccc(Cl)c1NC(=O)N1CCN(c2ccnc3cc(Cl)ccc23)CC1,-2.42%
10,O=C(Nc1ccc(F)cc1)C(c1ccccc1)N1CCN(CC(=O)N2CCOCC2)CC1 (stereo not shown),-14.5%
11,CCN(C(=O)COC(=O)/C=C/c1ccco1)c1c(N)n(Cc2ccccc2)c(=O)[nH]c1=O,6.05%
12,CC(=O)N1CCCC(N2CCN(c3cccc(C(F)(F)F)c3)CC2)C1 (stereo not shown),3%
13,CC(=O)c1ccc(NC(=O)c2cc(CC(C)C)on2)cc1,14%
14,CCn1c(Cn2nnc(-c3ccccc3)n2)nnc1SCC(=O)Nc1ccc(C(C)=O)cc1,5.63%
15,COc1ccccc1C(=O)N/C(=C/c1ccco1)C(=O)Nc1ccc(C(=O)O)cc1,5.28%
16,Cc1ccc(S(=O)(=O)N2CCC(n3nnc4cc(C)ccc43)CC2)cc1,-9.01%
17,COc1ccc(NC(=O)C(=O)NCCC2CCCCN2S(=O)(=O)c2ccccc2)cc1 (stereo not shown),-21.8%
18,COc1ccc(OC)c(C(=O)c2coc3ccc(OC(C)=O)cc23)c1,14.8%
19,COC(=O)CSC1=C(C#N)C(c2ccsc2)CC(=O)N1 (stereo not shown),11.8%
20,CC[C@@H]1CC=C[C@H]2[C@H]1C(=O)N(Cc1ccccc1)[C@H]2c1ccc(OC)c(Cl)c1,13.9%
21,COC(=O)c1ccc(N=CC2=C(O)CC(c3ccccc3)CC2=O)cc1 (stereo not shown),14.8%
22,CCOC(=O)CNC(=O)Cn1cnc2c(nnn2-c2ccc(OC)cc2)c1=O,11%
23,CCN(CC(=O)Nc1ccc(OC)cc1)CC(=O)Nc1ccc(Br)cc1F,-3.75%
24,CC1=CC2CC1C1C(=O)N(c3ccc(S(=O)(=O)Nc4nc(C)cc(C)n4)cc3)C(=O)C21 (stereo not shown),14.6%
25,N/C(COc1ccc(Cl)cc1Cl)=N\O,7.59%
26,COc1ccc2nc(NCCCNC(=O)c3cc(OC)c(OC)c(OC)c3)c(C#N)cc2c1,8.52%
27,COc1ccc(C2(C)NC(=O)N(CC(=O)NCc3ccccc3)C2=O)cc1OC (stereo not shown),12.4%
